Results are given in words; binding and its absence hold for the method and conditions named. Binding seen in cells or lysates may run through a third protein. Some entries that bind do so weakly or less than the wild type. For some assays here: Where a sequence is shown, tags or fusion partners need not be part of it. Values belong to the molecule of their own block, whether it stands above or below them.
Key:
[1] = biological target: T1, FUT2 in PANC-1 cells (co-IP of Fig. 5B) (human (endogenous in PANC-1)) (UniProt Q10981); assay: co-IP; KPC and PANC-1 cell lysates, indicated antibodies; Protein A/G Magnetic Beads for endogenous proteins; also with progressive FUT2 overexpression plus MG132 (Fig. 5G) and with shNT or shFUT2 (Fig. 5H)
T1 sequence: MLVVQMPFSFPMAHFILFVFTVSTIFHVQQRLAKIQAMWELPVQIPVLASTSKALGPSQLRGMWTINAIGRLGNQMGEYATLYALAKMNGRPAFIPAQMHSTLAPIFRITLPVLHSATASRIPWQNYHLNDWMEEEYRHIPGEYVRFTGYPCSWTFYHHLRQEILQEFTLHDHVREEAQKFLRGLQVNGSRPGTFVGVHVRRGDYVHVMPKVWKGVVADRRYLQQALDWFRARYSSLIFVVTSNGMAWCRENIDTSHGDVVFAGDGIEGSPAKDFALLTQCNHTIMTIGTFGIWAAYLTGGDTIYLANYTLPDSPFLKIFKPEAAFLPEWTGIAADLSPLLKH

Chains of the proteins cited; added tags and fusions are not shown.
UniProt P63208: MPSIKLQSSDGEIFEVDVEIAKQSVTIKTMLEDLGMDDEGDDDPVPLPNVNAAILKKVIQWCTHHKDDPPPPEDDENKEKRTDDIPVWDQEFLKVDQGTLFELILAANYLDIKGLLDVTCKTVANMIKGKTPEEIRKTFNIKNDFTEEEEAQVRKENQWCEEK

[2] = biological target: T2, NR2F2 in PANC-1 cells (human (endogenous in PANC-1)) (UniProt P24468); assay: as above
T2 sequence: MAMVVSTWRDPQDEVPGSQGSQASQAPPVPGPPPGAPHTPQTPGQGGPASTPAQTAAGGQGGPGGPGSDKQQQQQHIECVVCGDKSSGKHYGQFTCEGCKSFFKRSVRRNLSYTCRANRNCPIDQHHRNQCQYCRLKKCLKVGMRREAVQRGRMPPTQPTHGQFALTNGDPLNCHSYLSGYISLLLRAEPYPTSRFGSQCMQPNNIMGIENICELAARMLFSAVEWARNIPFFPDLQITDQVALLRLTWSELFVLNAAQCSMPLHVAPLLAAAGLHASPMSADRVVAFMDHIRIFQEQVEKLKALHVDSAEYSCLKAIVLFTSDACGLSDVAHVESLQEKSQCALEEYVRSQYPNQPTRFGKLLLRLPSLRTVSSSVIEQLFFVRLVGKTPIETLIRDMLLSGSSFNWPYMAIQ

[3] = biological target: T3, NR2F2 in KPC cells (mouse (endogenous in KPC)) (UniProt P43135); assay: as above
T3 sequence: T2 sequence

[4] = biological target: T4, FUT2-C-Flag (C-terminal fragment of FUT2, amino acids 173-343) (UniProt Q10981); assay: co-IP; HEK293T cells co-transfected with Flag- and HA-tagged constructs (with or without FUT2 in Fig. S5C); anti-Flag M2 magnetic beads with lysates at 4 °C for 4 h; immunoblotting
T4 sequence: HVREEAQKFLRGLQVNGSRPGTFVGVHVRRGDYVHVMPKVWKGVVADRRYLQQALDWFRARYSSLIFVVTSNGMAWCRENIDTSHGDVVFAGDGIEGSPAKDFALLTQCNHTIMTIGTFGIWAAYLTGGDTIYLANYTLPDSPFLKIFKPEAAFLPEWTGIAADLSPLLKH

[5] = biological target: T5, FUT2-FL-Flag (full-length FUT2, amino acids 1-343) (UniProt Q10981); assay: as above
T5 sequence: T1 sequence

[6] = biological target: T6, FUT2-N-Flag (N-terminal fragment of FUT2, amino acids 1-172) (UniProt Q10981); assay: as above
T6 sequence: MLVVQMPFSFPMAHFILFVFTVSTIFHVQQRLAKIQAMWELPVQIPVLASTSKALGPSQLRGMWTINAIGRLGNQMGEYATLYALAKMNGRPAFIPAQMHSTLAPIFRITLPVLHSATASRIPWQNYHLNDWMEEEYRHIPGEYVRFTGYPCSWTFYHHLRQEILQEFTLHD

Flag-tagged NR2F2 = biological target: T7, Flag-tagged NR2F2 (UniProt P24468); assay: as above
T7 sequence: T2 sequence

[7] = biological target: T8, FUT2 of the in vitro binding assay (GST pulldown) (UniProt Q10981); assay: pull-down; GST pulldown, 'in vitro binding assay'; the paper says 'directly'; which partner carried GST is not told in the text shown
T8 sequence: T1 sequence

B1: FBXO2 in KPC cells (protein, UniProt Q80UW2 1-297)
chain: MDGDGDPESVSHPEEASPEEQPEEAGAEASAEEEQLREAEEEEEAEAVEYLAELPEPLLLRVLAELPATELVQACRLVCLRWKELVDGAPLWLLKCQQEGLVPEGSADEERDHWQQFYFLSKRRRNLLRNPCGEEDLEGWSDVEHGGDGWRVEELPGDNGVEFTQDDSVKKYFASSFEWCRKAQVIDLQAEGYWEELLDTTQPAIVVKDWYSGRTDAGSLYELTVRLLSENEDVLAEFATGQVAVPEDGSWMEISHTFIDYGPGVRFVRFEHGGQDSVYWKGWFGARVTNSSVWVEP
- binding [3]: binds

B3: FBXO2 in PANC-1 cells (protein, UniProt Q9UK22 1-296)
chain: MDGDGDPESVGQPEEASPEEQPEEASAEEERPEDQQEEEAAAAAAYLDELPEPLLLRVLAALPAAELVQACRLVCLRWKELVDGAPLWLLKCQQEGLVPEGGVEEERDHWQQFYFLSKRRRNLLRNPCGEEDLEGWCDVEHGGDGWRVEELPGDSGVEFTHDESVKKYFASSFEWCRKAQVIDLQAEGYWEELLDTTQPAIVVKDWYSGRSDAGCLYELTVKLLSEHENVLAEFSSGQVAVPQDSDGGGWMEISHTFTDYGPGVRFVRFEHGGQDSVYWKGWFGARVTNSSVWVEP
- binding [1]: binds
- binding [2]: binds

B4: FBXO2 of the in vitro binding assay (GST pulldown) (protein, UniProt Q9UK22 1-296)
chain: B3 chain
- binding [7]: binds

Second part, the molecule after the results:

- binding [1]: binds
- binding [2]: binds
Molecule: SKP1 in PANC-1 cells (from UniProt P63208 1-163)

- binding [4]: binds
- binding [5]: binds
- binding [6]: no binding
- binding (Flag-tagged NR2F2): binds
B2: FBXO2-HA (protein, UniProt Q9UK22 1-296)
chain: B3 chain

- binding [4]: no binding
- binding [5]: binds
- binding [6]: binds
B5: NR2F2-HA (protein, UniProt P24468 1-414)
chain: T2 sequence

- binding [7]: binds
B6: NR2F2 of the in vitro binding assay (GST pulldown) (protein, UniProt P24468 1-414)
chain: T2 sequence

— paper PMC12848027
